Data on 30 molecules can be found in PubChem BioAssay AID1745853 (National Center for Advancing Translational Sciences (NCATS), 2022).

The other results are listed elsewhere or left out. Shown are side measurements of this screen, not its main read-out; they come without a call.

Common to all, as to assay: Primary Screen for Target Class Profiling of Small Molecule Inhibitors of Methyltransferases
Assay [1] has as its target Glycine N-methyltransferase (Homo sapiens) (UniProt Q14749). The note with it: purified enzyme, MTase-Glo SAH luminescence; measured here: GNMT inhibition; at 40 µM; stronger effect = lower value. In outline:
(§1)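 Each enzyme was reacted with SAM and its substrate, with compounds tested once at 40 uM; SAH formed was read by MTase-Glo luminescence.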

The target of assay [2] is Guanidinoacetate N-methyltransferase (Homo sapiens) (UniProt Q14353). The following applies: purified enzyme, MTase-Glo SAH luminescence; measured here: GAMT inhibition; at 40 µM; stronger effect = lower value. An outline of the steps:
as §1

Assay [3] deals with Histamine N-methyltransferase (Homo sapiens) (UniProt P50135). The note with it: purified enzyme, MTase-Glo SAH luminescence; measured here: HNMT inhibition; at 40 µM; stronger effect = lower value. In outline: as §1
The target in assay [4] is Nicotinamide N-methyltransferase (Homo sapiens) (UniProt P40261). The following applies: purified enzyme, MTase-Glo SAH luminescence; measured here: NNMT inhibition; at 40 µM; stronger effect = lower value. In outline:
as §1

The target of assay [5] is Phenylethanolamine N-methyltransferase (Homo sapiens) (UniProt P11086). The note with it: purified enzyme, MTase-Glo SAH luminescence; measured here: PNMT inhibition; at 40 µM; stronger effect = lower value. In outline: as §1
% is set by controls: 0 for no effect and ±100 for the full control effect.

For `Cn1cc([C@@H](NC(=O)c2ccc3c(c2)CCCC3)C2CC(O)C2)cn1` (stereo not given in full), the activity change, negative = inhibition in assay [1] is -3.57%; in assay [2] it was -7.28%; in assay [3] it was -2.55%; in assay [4] it was -5.41%; in assay [5], -1.84%.

Take `O=C(C1CCCN1C(=O)Cc1ccc(F)cc1)N1CCC(N2CCOCC2=O)CC1` (stereo not given): the activity change, negative = inhibition is -3.46% in assay [1]; -6.05% in assay [2]; -2.3% in assay [3]; -6.36% in assay [4]; -1.89% in assay [5].

In the case of `CCCS(=O)(=O)N1CC(Oc2ccccc2-c2nc(C3CC3)no2)C1`, the activity change, negative = inhibition in assay [1] was -6.11%; in assay [2], -2.9%; in assay [3], -0.741%; in assay [4], -11%; in assay [5], -4.75%.

Take `Cn1cc(CN2CCOC[C@H]2c2ncc(C(C)(C)C)[nH]2)c2ccccc21`: the activity change, negative = inhibition is -7.76% in assay [1]; -10.3% in assay [2]; -8.14% in assay [3]; -5.98% in assay [4]; -4.35% in assay [5].

For the molecule `COc1ccccc1CNC(=O)C1(C)Cn2nc(-c3ccccc3)cc2C(=O)N1CCc1ccc(SC)cc1` (stereo not given), the activity change, negative = inhibition in assay [1] is 0.332%; in assay [2], 5.8%; in assay [3], 1.74%; in assay [4], 3.83%; in assay [5] it was -0.643%.

Turning to `CC(=O)N(C1CC1)C1CCOC2(CCN(C(=O)c3sc(C)nc3C)CC2)C1` (stereo not given), the activity change, negative = inhibition was -0.259% in assay [1]; -1.25% in assay [2]; 1.56% in assay [3]; -0.293% in assay [4]; 0.697% in assay [5].

On to `CCCc1nc2c3ccccc3n(CC(=O)N3CCN(c4ccc(F)cc4)CC3)c(=O)n2n1`, for which the activity change, negative = inhibition in assay [1] was -7.97%; in assay [2], 0%; in assay [3] it was -12.1%; in assay [4] it was -15.2%; in assay [5] it was -19.8%.

As to `CCc1cc(N2CCOCC(O)(CN3CCCC3)C2)nc(N2CCCC2)n1` (stereo not given), the activity change, negative = inhibition in assay [1] was 1.39%; in assay [2], 0.208%; in assay [3] it was -19%; in assay [4], -8.91%; in assay [5], 14.9%.

For `CCc1cc2c(cc3n2CC(C)(C(=O)NC2CCCCCC2)N(Cc2ccco2)C3=O)s1` (stereo not given), the activity change, negative = inhibition in assay [1] is -1.69%; in assay [2], 0%; in assay [3] it was 2.48%; in assay [4], -9.87%; in assay [5] it was -1.28%.

As for `COC(=O)[C@H](Cc1ccc([N+](=O)[O-])cc1)NC(=O)c1cccc2ccccc12`, the activity change, negative = inhibition in assay [1] was -0.992%; in assay [2] it was 0.03%; in assay [3], 10.7%; in assay [4], -13.7%; in assay [5] it was -2.54%.

For the molecule `COc1ccccc1-c1ccc(C(=O)N2CCC(NC(=O)Nc3ccc(Cl)cc3)CC2)cc1`, the activity change, negative = inhibition in assay [1] is -4.4%; in assay [2], -5.9%; in assay [3], -2.92%; in assay [4], -4.47%; in assay [5], -10.4%.

Take `COc1cc(OC)c(C(=O)N2CCC3(CC2)[C@H](O)C[C@@H]3OC)cc1OC`: the activity change, negative = inhibition in assay [1] is -0.567%; in assay [2] it was -1.56%; in assay [3], -1.24%; in assay [4], -1.46%; in assay [5], -0.918%.

In the case of `CCCn1c(=O)c2ccccc2n2c(SCc3ccc(F)cc3)nnc12`, the activity change, negative = inhibition was -6.75% in assay [1]; 0% in assay [2]; 6.59% in assay [3]; -7.32% in assay [4]; -0.578% in assay [5].

Turning to `O=C(Cn1nc2n(Cc3ccc(F)cc3)c(=O)c3ccccc3n2c1=O)c1ccccc1`, the activity change, negative = inhibition in assay [1] was determined as 5.52%; in assay [2] it was 0%; in assay [3], 8.18%; in assay [4], 1.8%; in assay [5] it was 6.21%.

With `CC1=C[C@@H](CC#N)[C@H](C(C)C)C[C@H]1CC(=O)N(C)Cc1cccnc1`, the activity change, negative = inhibition in assay [1] was -7.88%; in assay [2], -7.69%; in assay [3], -2.65%; in assay [4] it was -27.4%; in assay [5] it was -8.02%.

On to `CC(C)(C)c1cc2n(n1)CC(C)(C(=O)NCc1ccccc1)N(Cc1cccc(F)c1)C2=O` (stereo not given), for which the activity change, negative = inhibition in assay [1] was 2.12%; in assay [2] it was 0.392%; in assay [3], 2.23%; in assay [4], -1.51%; in assay [5] it was -2.88%.

Consider `CCC1(O)CCC12CCN(C(=O)C1CC1)CC2` (stereo not given), for which the activity change, negative = inhibition in assay [1] is -1.55%; in assay [2], -0.648%; in assay [3] it was 1.79%; in assay [4], -0.287%; in assay [5], 12.9%.

For `Cc1cccc(-c2noc(CCC(=O)N3CCC(C)(c4noc(C)n4)CC3)n2)c1`, the activity change, negative = inhibition in assay [1] was -8.06%; in assay [2], -13.6%; in assay [3] it was -6.24%; in assay [4], -21.1%; in assay [5], -15.9%.

Turning to `CCn1cc(CN2C[C@@H](CO)[C@H](NC(=O)COC)C2)c2ccccc21`, the activity change, negative = inhibition was -7.3% in assay [1]; -11.4% in assay [2]; -11.1% in assay [3]; -18.7% in assay [4]; -14.1% in assay [5].

Consider `CCOC(=O)c1cc2n(n1)CC(C)(C(=O)NC1CCC(C)CC1)N(c1ccc(Cl)cc1C)C2=O` (stereo not given), for which the activity change, negative = inhibition in assay [1] was 0.541%; in assay [2], 2.71%; in assay [3], -0.538%; in assay [4] it was -4.26%; in assay [5] it was -1.97%.

Take `Cc1noc2c1-c1ccccc1C(c1ccc(Cl)cc1)=N[C@H]2CC(N)=O`: the activity change, negative = inhibition in assay [1] was 1.56%; in assay [2] it was 2.02%; in assay [3], 7.3%; in assay [4], -23.3%; in assay [5] it was -9.43%.

Consider `O=C(Nc1cccc(C(F)(F)F)c1)Nc1cc(S(=O)(=O)NC2CC2)ccc1-c1ccsc1`, for which the activity change, negative = inhibition in assay [1] was -0.832%; in assay [2], -5.29%; in assay [3], -0.404%; in assay [4], -26.4%; in assay [5] it was -15.2%.

Regarding `CCOC(=O)c1cc2n(n1)CC(C)(C(=O)NCc1ccccc1)N(c1ccc(OCC)cc1)C2=O` (stereo not given), the activity change, negative = inhibition in assay [1] was 0.786%; in assay [2], 1.89%; in assay [3], 3.17%; in assay [4], -1.77%; in assay [5], -0.508%.

Turning to `COc1ccc(CN(C)C(=O)C2(C)CCOCC2)cc1`, the activity change, negative = inhibition in assay [1] was -5.4%; in assay [2], -9.13%; in assay [3] it was -2.89%; in assay [4], -18.8%; in assay [5], 4.42%.

Regarding `CCC(C)NC(=O)c1ccc2c(=O)n(C)c3nnc(SCc4ccc(F)cc4)n3c2c1` (stereo not given), the activity change, negative = inhibition in assay [1] was determined as 7.47%; in assay [2], 4.67%; in assay [3] it was 5.03%; in assay [4], 2.57%; in assay [5], 3.44%.

As to `CCCCN1C(=O)NC(c2ccc(OC)cc2)C2=C1COC2=O` (stereo not given), the activity change, negative = inhibition in assay [1] is -6.23%; in assay [2], -3.07%; in assay [3], 0.724%; in assay [4] it was -10.2%; in assay [5], -1.67%.

Consider `Cc1cc(C)n(Cc2ccc(C(=O)N3CCCC(CO)CCNC(=O)CC3)o2)n1` (stereo not given), for which the activity change, negative = inhibition in assay [1] was -0.935%; in assay [2], -2.63%; in assay [3], -3.46%; in assay [4], 0.884%; in assay [5], -1.79%.

In the case of `CC(C)OCCCn1c(=O)c2ccccc2n2c(CCC(=O)N3CCN(c4ccccc4)CC3)nnc12`, the activity change, negative = inhibition is -6.65% in assay [1]; -4.5% in assay [2]; -0.762% in assay [3]; -11.5% in assay [4]; -0.187% in assay [5].

In the case of `CCN1CCN(CCCN2CC3(CCN(Cc4ncc[nH]4)CC3)OC2=O)CC1`, the activity change, negative = inhibition is 2.31% in assay [1]; 1.22% in assay [2]; 2.51% in assay [3]; -1.28% in assay [4]; 3.92% in assay [5].

As for `NC(=O)c1ccc(F)c2c1C[C@@H](N(C1CCC1)C1CCC1)CO2`, the activity change, negative = inhibition in assay [1] is 1.24%; in assay [2], 7.07%; in assay [3], 13.4%; in assay [4], -8.7%; in assay [5], 5.53%.
